Read counts are not given, so values of variants with three or more changes are uncertain.
B1: CPEB3 Ribozyme (parent)
chain: UAACAGGGGGCCACAGCAGAAGCGUUCACGUCGCAGCCCCUGUCAGAUUCUGGUGAAUCUGCGAAUUCUGCUGUAUAUCUC

Variants of: B1
Assay: self-cleavage, relative activity (ratio to wild type); higher = more cleavage; in vitro, sequencing
Outline: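 For each CPEB3 ribozyme variant, relative activity is its cleaved/total read fraction divided by the unmutated ribozyme's. Barcoded error-prone PCR libraries were transcribed by T7 RNA polymerase (5 hours, 37°C) and held in DNase I for 15 min before an EDTA stop, with cleavage occurring throughout. Template-switching reverse transcription and Illumina sequencing were used to read the RNAs. A 5-read minimum applied, and results are the mean of three batches.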
Work on A13G A20G C29U G52U yielded a self-cleavage of 0.3. For A13G A20G C32A U60C A64G, the self-cleavage was 0.05. With A13G A20G C32U G53A G61C C68U U80A the self-cleavage was 0.03. Work on A13G A20G C71A yielded a self-cleavage of 0.25. Variant A13G A20G G52C A57G A77G has a self-cleavage of 0.61. A13G A20G U25A showed a self-cleavage of 0.13. For A13G A20G U25C A64U, the self-cleavage was 0.11. Work on A13G A20G U26A C29U U49C yielded a self-cleavage of 0.08. With A13G A20G U26A G61U U69A the self-cleavage was 0.08. Work on A13G A20G U43C yielded a self-cleavage of 0.23. For A13G A20G U51C U67C, the self-cleavage was 0.87. For A13G A20G U51C U72C, the self-cleavage was 0.41. Work on A13G A20G U66A yielded a self-cleavage of 0.27. Work on A13G A20G U69A yielded a self-cleavage of 0.23. A13G A20G U69C U72C showed a self-cleavage of 0.16. In the case of A13G A20G U72C, the self-cleavage is reported as 0.45. In the case of A13G A20U A21G U26C U41C A64G A75G, the self-cleavage is reported as 0. A13G A20U A21G U43C U66A gave a self-cleavage of 0.07. A13G A20U A21U C40U U78C showed a self-cleavage of 0.18. For A13G A20U A21U G46C U48C A56U, the self-cleavage was 0.09. Variant A13G A20U A28U C37U has a self-cleavage of 0.1. In the case of A13G A20U A35U U43C U48A U66C, the self-cleavage is reported as 0.07. In the case of A13G A20U A57G U66C, the self-cleavage is reported as 0.12. With A13G A20U C50U A65C the self-cleavage was 0.05. For A13G A20U G33A A64G, the self-cleavage was 0.16. A13G A20U G33A U66C gave a self-cleavage of 0.07. For A13G A20U G46U, the self-cleavage was 0.09. In the case of A13G A20U U25C C32U C68A, the self-cleavage is reported as 0.12. A13G A20U U25C U58C A77G gave a self-cleavage of 0.05. For A13G A20U U54C, the self-cleavage was 0.24. For A13G A20U U60C U66A G70U, the self-cleavage was 0.06. A13G A20U U67G U72A showed a self-cleavage of 0.2. A13G A21C G53A U54C U72A showed a self-cleavage of 0.06. A13G A21G A28U A57G A64U gave a self-cleavage of 0.1. Work on A13G A21G A35G U41A U67A yielded a self-cleavage of 0.39. With A13G A21G A35G U51C the self-cleavage was 0.11. A13G A21G A45G A56G U78G showed a self-cleavage of 0.09. Variant A13G A21G A45G U76C U78G has a self-cleavage of 0.32. For A13G A21G A45U U78C, the self-cleavage was 0.14. For A13G A21G A47U, the self-cleavage was 0.12. In the case of A13G A21G A56U, the self-cleavage is reported as 0.33. Variant A13G A21G C32U A45G U69A has a self-cleavage of 0.02. A13G A21G C39G U54A A77G showed a self-cleavage of 0.3. In the case of A13G A21G C44U U76A, the self-cleavage is reported as 0.09. A13G A21G C59U U67C gave a self-cleavage of 0.1. Variant A13G A21G C79U has a self-cleavage of 0.69. Variant A13G A21G G22C G24A U26C has a self-cleavage of 0.09. Variant A13G A21G U25A A45U U58A A75G has a self-cleavage of 0.03. In the case of A13G A21G U25C G30C U72A, the self-cleavage is reported as 0.24. Work on A13G A21G U25C U69A yielded a self-cleavage of 0.29. In the case of A13G A21G U25C U69A U78C, the self-cleavage is reported as 0.04. Variant A13G A21G U26C has a self-cleavage of 0.45. With A13G A21G U26C A45U U60C A65G the self-cleavage was 0. In the case of A13G A21G U31C, the self-cleavage is reported as 0.41. A13G A21G U41A A45G U51A G53U gave a self-cleavage of 0.37. A13G A21G U41A A64C gave a self-cleavage of 0.06. Work on A13G A21G U43A U51C U60C yielded a self-cleavage of 0.13. Work on A13G A21G U51C C81U yielded a self-cleavage of 0.33. A13G A21G U54C U69C gave a self-cleavage of 0.09. With A13G A21G U74C the self-cleavage was 0.61. A13G A21U A28G A45G U54C A77U U80C showed a self-cleavage of 0. A13G A21U A35G C37A U41C U80C gave a self-cleavage of 0.25. In the case of A13G A21U A35U A56G A65G, the self-cleavage is reported as 0.08. With A13G A21U A64G the self-cleavage was 0.09. Work on A13G A21U C23A A45G A47G U72C yielded a self-cleavage of 0.03. A13G A21U U31C A45G U48A U54C U72A gave a self-cleavage of 0.08. A13G A21U U31C A75U gave a self-cleavage of 0.23. Work on A13G A28C A35U yielded a self-cleavage of 0.22. For A13G A28C A57G G63C, the self-cleavage was 0.18. In the case of A13G A28C U41C C81U, the self-cleavage is reported as 0.37. A13G A28G A45U gave a self-cleavage of 0.24. Variant A13G A28G A47U U72C has a self-cleavage of 0.09. A13G A28G A56G gave a self-cleavage of 0.2. A13G A28G A75G showed a self-cleavage of 0.38. A13G A28G A77G showed a self-cleavage of 0.38. A13G A28G C38U U76C gave a self-cleavage of 0.44. For A13G A28G C39A U72C A75G, the self-cleavage was 0.07. A13G A28G C40U U43C showed a self-cleavage of 0.26. A13G A28G G46U U54A U78C U80C gave a self-cleavage of 0.05. Variant A13G A28G G73U has a self-cleavage of 0.79. For A13G A28G U31A U78C, the self-cleavage was 0.2. For A13G A28G U31C A35U A45U, the self-cleavage was 0.18. A13G A28G U41C U49A U60C U66C U72C gave a self-cleavage of 0.1. Variant A13G A28G U49C U69A has a self-cleavage of 0.15. For A13G A28G U51A U66A U80C, the self-cleavage was 0.24. Variant A13G A28G U66C has a self-cleavage of 0.36. Work on A13G A28G U66C U78C yielded a self-cleavage of 0.18. In the case of A13G A28U C32G G63A A64U U72C, the self-cleavage is reported as 0.08. With A13G A28U G30C U72C U74C the self-cleavage was 0.05. A13G A28U G53U gave a self-cleavage of 0.44. A13G A28U U43C U58G U66A U69A gave a self-cleavage of 0.79. Variant A13G A28U U49C has a self-cleavage of 0.18. In the case of A13G A35C A56C U69C G70U, the self-cleavage is reported as 0.06. Work on A13G A35C A57G U58C U72A U80C yielded a self-cleavage of 0.1. With A13G A35C G53A U80A the self-cleavage was 0.87. With A13G A35C U43A A64U the self-cleavage was 0.25. A13G A35G A45G U51C U80A showed a self-cleavage of 0.36. For A13G A35G A45G U67A U76C, the self-cleavage was 0.15. For A13G A35G A56G U74C U80C, the self-cleavage was 0.97. With A13G A35G A77U the self-cleavage was 0.85. A13G A35G C68A gave a self-cleavage of 0.23. A13G A35G G36A U41A A45G gave a self-cleavage of 0.25. In the case of A13G A35G U41A A64U, the self-cleavage is reported as 0.11. For A13G A35G U43A U49C A64G, the self-cleavage was 0.06. Variant A13G A35G U43C A75C has a self-cleavage of 0.17. Work on A13G A35G U43C U49C U69C yielded a self-cleavage of 0.22. For A13G A35G U49A U69C, the self-cleavage was 0.16. For A13G A35G U51C A57U, the self-cleavage was 0.16. Work on A13G A35G U58C yielded a self-cleavage of 0.2. In the case of A13G A35G U66C U72A, the self-cleavage is reported as 0.22. For A13G A35G U66C U74A U78C, the self-cleavage was 0.2. For A13G A35G U72C, the self-cleavage was 0.77. For A13G A35G U72G U76A, the self-cleavage was 0.5. Work on A13G A35U A45G yielded a self-cleavage of 0.17. A13G A35U A45G U49C U51A gave a self-cleavage of 0.09. For A13G A35U C40G U41C U43C A45U U67C, the self-cleavage was 0.06. In the case of A13G A35U C44U U69C, the self-cleavage is reported as 0.11. In the case of A13G A35U U41A U67C U72A, the self-cleavage is reported as 0.05. A13G A35U U43A A45G showed a self-cleavage of 0.31. Work on A13G A35U U43C U49A U60C A64G C71U yielded a self-cleavage of 0.04. With A13G A35U U48C U58A the self-cleavage was 0.06. Variant A13G A35U U51C A56U A64U has a self-cleavage of 0.15. A13G A45C U51C A56G U69A showed a self-cleavage of 0.2. A13G A45C U58C gave a self-cleavage of 0.05. With A13G A45G A56G the self-cleavage was 0.45. With A13G A45G A64G G70U the self-cleavage was 0.18. With A13G A45G C50A U54C U60C U76A the self-cleavage was 1.06. For A13G A45G C59U A77U, the self-cleavage was 0.42. A13G A45G C59U U67C showed a self-cleavage of 0.03. A13G A45G G73A A77G gave a self-cleavage of 1.2. A13G A45G U48C U51C A64G gave a self-cleavage of 0.13. Variant A13G A45G U48C U66C has a self-cleavage of 0.58. In the case of A13G A45G U49A, the self-cleavage is reported as 0.21. In the case of A13G A45G U54C C62A U80C, the self-cleavage is reported as 0.2. Work on A13G A45G U60A yielded a self-cleavage of 0.27. With A13G A45G U66C U72A the self-cleavage was 0.24. In the case of A13G A45G U69A U72A, the self-cleavage is reported as 0.13. Work on A13G A45U A56G yielded a self-cleavage of 0.52. Work on A13G A45U A64G yielded a self-cleavage of 0.25. A13G A45U C62U U76C U78C gave a self-cleavage of 0.14. A13G A45U U49C G63A A75G showed a self-cleavage of 0.09. With A13G A45U U51C U67C U78C the self-cleavage was 0.36. In the case of A13G A45U U54C U60A A75G A77U, the self-cleavage is reported as 1.13. Work on A13G A45U U58C A75G yielded a self-cleavage of 0.2. A13G A45U U58C U67C U76G gave a self-cleavage of 0.13. A13G A45U U60C gave a self-cleavage of 0.3. For A13G A45U U66C G73C U74C U78C, the self-cleavage was 0.09. Work on A13G A45U U66C U72C C81U yielded a self-cleavage of 0.22. Work on A13G A47C G55C A57U yielded a self-cleavage of 0.12. A13G A47G C68A U69C G73A showed a self-cleavage of 0.23. For A13G A47G U54C C62A U80A, the self-cleavage was 0.24. In the case of A13G A47G U76A, the self-cleavage is reported as 0.96. Work on A13G A47U A65G yielded a self-cleavage of 0.23. Variant A13G A47U U48C U72C C81U has a self-cleavage of 0.26. With A13G A47U U49C C68A U72A the self-cleavage was 0.09. Work on A13G A47U U76A yielded a self-cleavage of 0.3. In the case of A13G A56C U66C, the self-cleavage is reported as 0.04. Variant A13G A56G U58A U69C U78A has a self-cleavage of 0.16. In the case of A13G A56G U60C A77G, the self-cleavage is reported as 0.3. A13G A56G U69A gave a self-cleavage of 0.3. For A13G A56U A75G, the self-cleavage was 0.41. A13G A56U U66C gave a self-cleavage of 0.16. In the case of A13G A57C U58C, the self-cleavage is reported as 0.19. A13G A57G A64G U67C showed a self-cleavage of 0.14. A13G A57G A65G U67A U69C gave a self-cleavage of 0.16. With A13G A57G U60C U72C the self-cleavage was 0.08. Variant A13G A57G U67C U76A has a self-cleavage of 0.19.
